{
  "source": "PubChem BioAssay (NCATS)",
  "key": {"[1]": {"experiment": "qHTS of pediatric cancer cell lines to identify multiple opportunities for drug repurposing: Primary screen for BT-12 cells (AID 1347101); further: nearly all actives have a fitted effect of over 25% in size; further: potency means the concentration at half of the fitted maximal effect", "how_it_was_run": "(§1)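 Cells (500-1,000/well) rested 5 h, then received compounds for 48 h; metabolically active cells were measured by CellTiter-Glo luminescence. Final concentrations spanned up to 46 µM (MIPE, 11-point) or 0.59 nM-46 µM (NPC, 8-point) in primary screens, 11-point in follow-ups.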"}, "[2]": {"experiment": "Primary qHTS for small molecule stabilizers of the endoplasmic reticulum resident proteome: Secreted ER Calcium Modulated Protein (SERCaMP) assay (AID 1508630)", "details": "SH-SY5Y GLuc-SERCaMP (Gaussia luciferase released on ER calcium loss) secretion, thapsigargin, luminescence", "how_it_was_run": "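The SH-SY5Y reporter protocol was run at 3 concentrations up to 38.3 uM (primary) or 11 concentrations (follow-up): 16 h compound, 100 nM thapsigargin for 4 h, then extracellular luciferase luminescence.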"}, "[3]": {"biological_target": "Glutathione peroxidase 1 (Homo sapiens) (UniProt P07203)", "sequence (P07203 whole entry, looked up)": "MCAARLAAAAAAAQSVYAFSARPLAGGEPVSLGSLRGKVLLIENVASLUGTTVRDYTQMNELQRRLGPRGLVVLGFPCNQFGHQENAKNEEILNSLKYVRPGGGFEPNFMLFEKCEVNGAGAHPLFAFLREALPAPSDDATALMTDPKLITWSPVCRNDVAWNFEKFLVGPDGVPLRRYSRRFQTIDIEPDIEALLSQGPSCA", "experiment": "Primary qHTS Assay for Inhibitors of Recombinant Selenoprotein Glutathione Peroxidase 1 (GPX1) (AID 1845191)", "details": "activity, negative = inhibition: at 48.8 µM (top of the series)", "how_it_was_run": "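NADPH consumption tracked by fluorescence at 340/450 nm between t=0 and t=15 min, room temperature. Final mix: 10 nM GPX1, 100 nM glutathione reductase, 1 mM GSH, 0.5 mM NADPH, 0.5 mM cumene hydroperoxide, 0.01% BSA; 30 min compound–enzyme preincubation.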"}, "[4]": {"biological_target": "Phospholipid hydroperoxide glutathione peroxidase GPX4 (Homo sapiens) (UniProt P36969)", "sequence (P36969 whole entry, looked up)": "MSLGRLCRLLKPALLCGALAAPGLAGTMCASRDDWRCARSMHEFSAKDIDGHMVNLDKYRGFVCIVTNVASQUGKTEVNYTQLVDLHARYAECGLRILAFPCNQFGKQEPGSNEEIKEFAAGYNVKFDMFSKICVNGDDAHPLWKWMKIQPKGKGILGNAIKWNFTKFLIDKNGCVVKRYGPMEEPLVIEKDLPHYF", "experiment": "Primary qHTS Assay for Inhibitors of Recombinant Selenoprotein Glutathione Peroxidase 4 (GPX4) (AID 1845192)", "how_it_was_run": "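NADPH consumption followed by fluorescence at 340/450 nm, t=0 and after 15 min at room temperature. Reaction started with cumene hydroperoxide (0.5 mM final) after 30 min compound–GPX4 preincubation; final 200 nM GPX4, 100 nM GR, 1 mM GSH, 0.5 mM NADPH.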"}, "WaGa": {"system": "WaGa", "experiment": "qHTS assay to identify novel small-molecules to repurpose for Merkel cell carcinoma treatment (AID 1296009)", "details": "MCC and control cell lines, CellTiter-Glo viability, 72 h; series mostly up to 46 µM", "how_it_was_run": "(§2)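 Cell viability measured by CellTiter-Glo following 72 hr compound treatment at 37 degree celsius, with NPC and MIPE libraries tested in 8- and 11-point concentration series.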"}, "[5]": {"experiment": "qHTS of pediatric cancer cell lines to identify multiple opportunities for drug repurposing: Primary screen for Rh18 cells (AID 1347102)", "how_it_was_run": "as §1"}, "[6]": {"biological_target": "Cytochrome P450 2C9 (Homo sapiens) (UniProt P11712)", "sequence (P11712 whole entry, looked up)": "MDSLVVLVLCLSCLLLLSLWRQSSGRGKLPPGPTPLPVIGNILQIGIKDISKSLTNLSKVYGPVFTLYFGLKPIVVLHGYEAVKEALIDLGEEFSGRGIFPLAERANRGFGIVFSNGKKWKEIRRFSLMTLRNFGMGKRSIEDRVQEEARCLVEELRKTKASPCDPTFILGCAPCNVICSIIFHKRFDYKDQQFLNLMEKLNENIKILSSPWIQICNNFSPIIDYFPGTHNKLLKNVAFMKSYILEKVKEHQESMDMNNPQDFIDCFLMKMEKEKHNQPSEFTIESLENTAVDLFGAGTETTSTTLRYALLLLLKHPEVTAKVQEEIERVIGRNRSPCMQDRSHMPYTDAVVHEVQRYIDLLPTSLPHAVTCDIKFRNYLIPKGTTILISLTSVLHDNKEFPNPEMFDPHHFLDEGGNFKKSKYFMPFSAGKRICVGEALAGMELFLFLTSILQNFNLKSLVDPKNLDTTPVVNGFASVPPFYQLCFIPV", "experiment": "Cytochrome P450 family 2 subfamily C member 9 (CYP2C9) small molecule antagonists: luciferase biochemical (cell-free) qHTS assay (AID 1645842; active means well fitted curve in the direction sought with a large enough effect in the repeat runs; inconclusive means weak or mixed curves; inactive means no such curve, though single readings can be large; an effect the other way counts as inactive or inconclusive)", "how_it_was_run": "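P450-Glo CYP2C9 system: proluciferin substrate with enzyme in mix containing 0.4% BSA, 10 min at room temperature, then NADPH regeneration solution added and incubated 1 h at 37C. Detection reagent stopped reaction; luminescence read after 20 min as RLU.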"}, "[7]": {"experiment": "Primary redox qHTS assay for identification of artifact compounds. (AID 1845223)", "how_it_was_run": "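Redox-cycling detection via DTT (250 uM final) oxidation coupled to Amplex Red (25 uM)/HRP (250 mU/mL) in HBSS. 15 min preincubation plus 30 min after DTT, room temperature. Ex/Em 525/598 nm; 4-parameter Hill fit against DMSO and 10 uM DA3003.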"}, "[8]": {"biological_target": "Cytochrome P450 2D6 (Homo sapiens) (UniProt P10635)", "sequence (P10635 whole entry, looked up)": "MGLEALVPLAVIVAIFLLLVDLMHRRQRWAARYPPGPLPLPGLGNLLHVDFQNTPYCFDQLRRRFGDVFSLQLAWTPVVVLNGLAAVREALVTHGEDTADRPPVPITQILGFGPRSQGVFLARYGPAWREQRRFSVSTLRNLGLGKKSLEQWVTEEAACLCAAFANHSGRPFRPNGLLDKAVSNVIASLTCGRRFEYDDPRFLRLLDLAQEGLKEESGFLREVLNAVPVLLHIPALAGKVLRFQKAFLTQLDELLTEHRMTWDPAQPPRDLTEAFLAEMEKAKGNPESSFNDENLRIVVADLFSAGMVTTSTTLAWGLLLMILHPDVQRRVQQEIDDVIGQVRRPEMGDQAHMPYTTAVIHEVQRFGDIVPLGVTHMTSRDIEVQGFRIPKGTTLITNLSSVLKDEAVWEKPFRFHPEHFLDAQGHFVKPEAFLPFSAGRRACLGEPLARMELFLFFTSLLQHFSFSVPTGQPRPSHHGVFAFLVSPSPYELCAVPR", "experiment": "Cytochrome P450 family 2 subfamily D member 6 (CYP2D6) small molecule antagonists: luciferase biochemical (cell-free) qHTS assay (AID 1645840; active means well fitted curve in the direction sought with a large enough effect in the repeat runs; inconclusive means weak or mixed curves; inactive means no such curve, though single readings can be large; an effect the other way counts as inactive or inconclusive)", "how_it_was_run": "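P450-Glo CYP2D6 system: proluciferin substrate converted by enzyme to luciferin, read by luminescence proportional to activity. Enzyme-substrate mix with compound 10 min at room temperature, then NADPH regeneration 1 h before detection reagent.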"}, "[9]": {"experiment": "qHTS assay to identify inhibitors of the type 1 interferon - major histocompatibility complex class I in skeletal muscle: Counter screen cell viability and HiBit confirmation (AID 1347412)", "details": "iHSKM muscle cells + IFN-b, HiBiT or CellTiter-Glo, 24 h", "how_it_was_run": "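After 24 h with human IFN-beta (4 ng/ml) and compound titrations (top 46 uM final, 1:3, 12 points), HLA-B HiBit myoblasts were lysed for either Nano-Glo HiBiT luminescence or CellTiter Glo viability on paired plates.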"}, "[10]": {"experiment": "qHTS of pediatric cancer cell lines to identify multiple opportunities for drug repurposing: Primary screen for DAOY cells (AID 1347090)", "details": "DAOY medulloblastoma viability, CellTiter-Glo luminescence, 48 h; activity change, negative = cytotoxic: at 46 µM (top of the series)", "how_it_was_run": "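Cell viability, CellTiter-Glo luminescence; 500-1,000 cells/well, 8- or 11-point titration, 48 h compound exposure at 37 degrees C, 5% CO2. Controls: DMSO neutral, bortezomib 2.3 µM final as positive.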"}, "[11]": {"experiment": "qHTS of pediatric cancer cell lines to identify multiple opportunities for drug repurposing: Primary screen for U-2 OS cells (AID 1347096)", "how_it_was_run": "as §1"}, "[12]": {"experiment": "qHTS of pediatric cancer cell lines to identify multiple opportunities for drug repurposing: Primary screen for Rh30 cells (AID 1347107)", "how_it_was_run": "as §1"}, "[13]": {"experiment": "qHTS of pediatric cancer cell lines to identify multiple opportunities for drug repurposing: Primary screen for Rh41 cells (AID 1347108)", "how_it_was_run": "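Readout: CellTiter-Glo luminescence, 48 h treatment. Controls DMSO (neutral) and bortezomib 2.3 µM final (positive). Potency and efficacy taken from primary-screen concentration-response curves.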"}, "MKL-2": {"system": "MKL-2", "experiment": "qHTS assay to identify novel small-molecules to repurpose for Merkel cell carcinoma treatment (AID 1296009)", "details": "MCC and control cell lines, CellTiter-Glo viability, 72 h; activity change, negative = cytotoxicity: at 46 µM (top of the series)", "how_it_was_run": "as §2"}, "UISO": {"system": "UISO", "experiment": "qHTS assay to identify novel small-molecules to repurpose for Merkel cell carcinoma treatment (AID 1296009)", "details": "MCC and control cell lines, CellTiter-Glo viability, 72 h; activity change, negative = cytotoxicity: at 46 µM (top of the series)", "how_it_was_run": "as §2"}, "[14]": {"experiment": "qHTS of pediatric cancer cell lines to identify multiple opportunities for drug repurposing: Primary screen for SK-N-MC cells (AID 1347093)", "details": "SK-N-MC viability, CellTiter-Glo luminescence, 48 h; activity change, negative = cytotoxic: at 46 µM (top of the series)", "how_it_was_run": "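Metabolically active cells were quantified by ATP-dependent luminescence (CellTiter-Glo, 15 min at room temperature) following 48 h treatment. Cells had been plated at 500-1,000 per well and settled for 5 h beforehand.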"}},
  "note": "Values joined by “and” are separate entries in the source; they are usually repeats but may differ in a detail not shown here. Identical values can stand only once. Inconclusive means that the source gave no clear call. Such entries were picked first, then a sample of the others. For some of these results: Potencies beside an inconclusive call are fits to weak or partial responses and may not hold up. Active and inactive are the calls of the source. Unless noted, the call rests on the fitted dose curve; in most records, active means well fitted curve in the direction sought with a large enough effect; inconclusive means small, poorly fitted or top-dose-only effect, or another doubt; inactive means no such curve, though single readings can be large; an effect the other way counts as inactive or inconclusive. Tags describe the fitted curve by direction and shape. Wherever activity change, negative = cytotoxicity is given: nearly all actives have a fitted effect of over 60% in size.",
  "data": [
    {"smiles": "CN(C)CCOC1=Cc2ccccc2Sc2ccc(Cl)cc21", "values": [
      {"measurement": "Potency", "setting": "[1]", "value": "inconclusive: 24.6 µM [cytotoxic, single point]"},
      {"measurement": "Potency", "setting": "[2]", "value": "inconclusive: 10 µM [inhibitor, single point]"},
      {"measurement": "Potency", "setting": "[3]", "value": "inconclusive: 32.1 µM [inhibitor, single point]"},
      {"measurement": "Potency", "setting": "[4]", "value": "inconclusive: 35.5 µM [inhibitor, single point]"},
      {"measurement": "Potency", "setting": "WaGa", "value": "inconclusive: 26.6 µM [inhibitor, single point]"}
    ]},
    {"smiles": "NC1CCN(c2nc3c(cc2F)c(=O)c(C(=O)O)cn3-c2ccc(F)cc2F)C1", "note": "(stereo not drawn)", "values": [
      {"measurement": "Potency", "setting": "[5]", "value": "inactive"},
      {"measurement": "Potency", "setting": "[2]", "value": "inconclusive: 1 µM [inhibitor, full curve]"},
      {"measurement": "Potency", "setting": "[6]", "value": "inactive"}
    ]},
    {"smiles": "C/C(=C\\CO[C@@H]1O[C@H](CO[C@H]2OC[C@](O)(CO)[C@H]2O)[C@@H](O)[C@H](O)[C@H]1O)C(C)(C)O", "values": [
      {"measurement": "Potency", "setting": "[7]", "value": "inactive"}
    ]},
    {"smiles": "COc1cc2c(NC3CCN(CC4CCCCC4)CC3)nc(N3CCCN(C(C)C)CC3)nc2cc1OCCCN1CCCCC1", "values": [
      {"measurement": "Potency", "setting": "[8]", "value": "inconclusive: 12 µM [inhibitor, partial curve]"},
      {"measurement": "Potency", "setting": "[3]", "value": "inconclusive: 18 µM [inhibitor, single point]"},
      {"measurement": "Potency", "setting": "[4]", "value": "inconclusive: 11.4 µM [inhibitor, partial curve] and inconclusive: 22.7 µM [inhibitor, partial curve, poor fit]"},
      {"measurement": "Potency", "setting": "[9]; HiBiT", "value": "inconclusive: 27.9 µM [inhibitor, single point]"},
      {"measurement": "Potency", "setting": "[9]; Viability", "value": "active: 24.9 µM"}
    ]},
    {"smiles": "C=C1C(=O)O[C@H]2[C@@H]1CCC(C)=CCC[C@@]1(C)O[C@@H]21", "values": [
      {"measurement": "Potency", "setting": "[10]", "value": "active: 9.35 µM"},
      {"measurement": "Potency", "setting": "[11]", "value": "inconclusive: 9.35 µM [cytotoxic, partial curve, poor fit]"},
      {"measurement": "Potency", "setting": "[1]", "value": "active: 21.7 µM"},
      {"measurement": "Potency", "setting": "[12]", "value": "active: 18.7 µM"},
      {"measurement": "Potency", "setting": "[13]", "value": "active: 11.8 µM"},
      {"measurement": "Potency", "setting": "MKL-2", "value": "active: 1.87 µM"},
      {"measurement": "Potency", "setting": "UISO", "value": "active: 14.8 µM"},
      {"measurement": "Potency", "setting": "WaGa", "value": "active: 7.43 µM"}
    ]},
    {"smiles": "CCNC(=O)Nc1ccc(-c2nc3c(c(N4CCOC[C@@H]4C)n2)CCN(c2ncccn2)C3)cc1", "values": [
      {"measurement": "Potency", "setting": "[6]", "value": "inconclusive: 23.9 µM [inhibitor, single point]"},
      {"measurement": "Potency", "setting": "[3]", "value": "inconclusive: 25.5 µM [inhibitor, partial curve]"}
    ]},
    {"smiles": "O=C(COc1ccc(Cl)cc1)N1CCN(Cc2ccc3c(c2)OCO3)CC1", "values": [
      {"measurement": "Potency", "setting": "[1]", "value": "inconclusive: 43.7 µM [cytotoxic, partial curve, poor fit]"},
      {"measurement": "Potency", "setting": "[5]", "value": "inactive"},
      {"measurement": "Potency", "setting": "MKL-2", "value": "inconclusive: 11.9 µM [inhibitor, partial curve, poor fit]"},
      {"measurement": "Potency", "setting": "WaGa", "value": "inconclusive: 33.5 µM [inhibitor, single point]"}
    ]},
    {"smiles": "COC[C@H](NC(=O)c1cnc(C)s1)C(=O)N[C@@H](COC)C(=O)N[C@@H](Cc1ccccc1)C(=O)[C@@]1(C)CO1", "values": [
      {"measurement": "Potency", "setting": "[5]", "value": "active: 0.187 µM"},
      {"measurement": "Potency", "setting": "[12]", "value": "active: 1.66 µM"},
      {"measurement": "Potency", "setting": "[13]", "value": "active: 0.296 µM"},
      {"measurement": "Potency", "setting": "[6]", "value": "inactive"},
      {"measurement": "Potency", "setting": "MKL-2", "value": "inconclusive: 0.0935 µM [inhibitor, full curve]"},
      {"measurement": "Potency", "setting": "[9]; Viability", "value": "inconclusive: 0.0701 µM [cytotoxic, full curve, poor fit]"}
    ]},
    {"smiles": "COc1ccc2c(c1)c(CC(=O)OC/C=C(\\C)CC/C=C(\\C)CCC=C(C)C)c(C)n2C(=O)c1ccc(Cl)cc1", "values": [
      {"measurement": "Potency", "setting": "[6]", "value": "inconclusive: 7.76 µM [inhibitor, partial curve]"},
      {"measurement": "Potency", "setting": "MKL-2", "value": "inconclusive: 26.6 µM [inhibitor, single point]"},
      {"measurement": "Potency", "setting": "WaGa", "value": "inconclusive: 23.7 µM [inhibitor, single point]"}
    ]},
    {"smiles": "Cc1cc(=O)[nH]c(=S)[nH]1", "values": [
      {"measurement": "Potency", "setting": "[14]", "value": "inactive"},
      {"measurement": "Potency", "setting": "[1]", "value": "inactive"},
      {"measurement": "Potency", "setting": "[2]", "value": "inconclusive: 28.2 µM [inhibitor, full curve]"},
      {"measurement": "Potency", "setting": "UISO", "value": "inactive"}
    ]},
    {"smiles": "CN(C)CCN1C(=O)c2ccccc2N(C)c2ccccc21", "values": [
      {"measurement": "Potency", "setting": "[8]", "value": "inconclusive: 34.7 µM [inhibitor, single point]"},
      {"measurement": "Potency", "setting": "WaGa", "value": "inactive"}
    ]}
  ]
}
